Measured values reported in PMC4336329 (PLoS ONE, 2015).
About 14,000 (4.5%) of roughly 310,000 compounds showed an effect of 50% or more. Effects have a minus sign here. The list shows a part of the results.

Each compound was assayed against human ether-à-go-go-related gene (hERG) potassium channel (human, UniProt Q12809) (assay: primary screen, population patch clamp on CHO cells stably expressing hERG).
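Note: peak tail current of the secondary pulse compared with the same well before compound.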

human ether-à-go-go-related gene (hERG) potassium channel, sequence (Q12809 whole entry, looked up): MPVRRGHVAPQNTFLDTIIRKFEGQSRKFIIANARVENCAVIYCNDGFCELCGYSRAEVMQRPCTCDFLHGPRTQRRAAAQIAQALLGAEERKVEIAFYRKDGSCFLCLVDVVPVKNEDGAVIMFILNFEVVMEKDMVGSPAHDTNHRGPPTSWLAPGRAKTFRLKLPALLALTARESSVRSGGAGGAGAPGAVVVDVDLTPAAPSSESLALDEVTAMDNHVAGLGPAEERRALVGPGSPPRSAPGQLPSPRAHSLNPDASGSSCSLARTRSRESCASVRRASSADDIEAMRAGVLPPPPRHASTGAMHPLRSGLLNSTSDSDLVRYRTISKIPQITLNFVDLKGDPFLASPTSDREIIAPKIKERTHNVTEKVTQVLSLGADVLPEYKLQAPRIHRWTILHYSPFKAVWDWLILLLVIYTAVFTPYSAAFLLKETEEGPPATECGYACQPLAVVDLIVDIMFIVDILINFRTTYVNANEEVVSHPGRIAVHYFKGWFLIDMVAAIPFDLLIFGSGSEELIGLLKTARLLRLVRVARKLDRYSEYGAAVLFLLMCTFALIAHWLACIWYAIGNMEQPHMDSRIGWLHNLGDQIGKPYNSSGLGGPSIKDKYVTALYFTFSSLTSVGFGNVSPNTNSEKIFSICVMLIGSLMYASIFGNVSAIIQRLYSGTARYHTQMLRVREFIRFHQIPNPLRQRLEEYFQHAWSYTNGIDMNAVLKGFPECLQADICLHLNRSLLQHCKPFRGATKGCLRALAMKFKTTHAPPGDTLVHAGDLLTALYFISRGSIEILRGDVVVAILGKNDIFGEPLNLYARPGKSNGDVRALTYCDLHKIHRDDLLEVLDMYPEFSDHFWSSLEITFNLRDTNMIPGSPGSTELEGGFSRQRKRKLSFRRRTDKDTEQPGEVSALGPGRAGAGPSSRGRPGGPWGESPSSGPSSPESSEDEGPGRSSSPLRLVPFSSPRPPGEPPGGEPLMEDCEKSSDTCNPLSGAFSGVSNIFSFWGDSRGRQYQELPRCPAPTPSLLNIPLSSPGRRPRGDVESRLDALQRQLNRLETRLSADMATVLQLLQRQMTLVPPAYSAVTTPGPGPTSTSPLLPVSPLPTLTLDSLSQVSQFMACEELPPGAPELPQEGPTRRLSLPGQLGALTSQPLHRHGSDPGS

| Compound | hERG current change (%, negative = inhibition) at 10uM [%] |
| --- | --- |
| COc1cc2c(cc1OC)C(=O)CC(C)S2 (stereo not shown) | 15.7 |
| Cc1c(NC(=O)c2noc(C(C)C)c2[N+](=O)[O-])c(=O)n(-c2ccccc2)n1C | 8.49 |
| CCN(C(=O)COC(=O)c1cnc(C)cn1)C1CCCCC1 | -0.161 |
| COC(=O)c1cccc(NC(=S)NCc2ccco2)c1 | -13.3 |
| CCOC(=O)c1c(C)[nH]c(C)c1C=O | 11.7 |
| C/C(=N\NC(=O)c1ccncc1)c1cc2ccccc2o1 | -20.5 |
| CCN(CC)C(=S)NC(=O)c1cc(OC)c(OC)c(OC)c1 | 17.9 |
| O=[N+]([O-])c1cccc(/C=C/c2ccc3cccc(O)c3n2)c1 | 8.32 |
| CCN(CC)CCN(Cc1cc2ccc(C)cc2[nH]c1=O)C(=S)Nc1ccccc1C(=O)OC | -64.2 |
| Fc1ccc(N/N=C/C=C/c2ccccc2)c(F)c1 | 0.663 |
| CCCCn1c(SCC(=O)NCCc2ccc(OC)c(OC)c2)nc2c1c(=O)n(C)c(=O)n2C | -4.03 |
| COc1ccc(NC2CCCN(C(=O)c3ccc(C)c(N4CCNC4=O)c3)C2)cc1 (stereo not shown) | 15.4 |
| CC(C)NC(=O)CSc1ccccc1C(=O)NNC(=O)Cn1ccc(C(F)(F)F)n1 | -1.92 |
| COc1cc(NC(=O)CCC2CCCC2)cc(-n2cnnn2)c1 | 1.96 |
| CCc1c(C(=O)NCCc2cccc(C)c2)[nH]c(C)c1C(C)=O | 12.2 |
| CNC(=S)N1N=C(c2ccc(C)cc2)CC1c1ccc(Br)cc1 (stereo not shown) | -14.2 |
| COC(=O)c1nc(NC(=O)c2ccccc2Cl)n[nH]1 | 0.4 |
| C=C[C@@H]1c2c(F)cccc2N(S(=O)(=O)c2ccc(C)cc2)[C@H](c2ccc(OC(C)=O)cc2)C1(C#N)C#N | 17 |
| CCOCCCNC(=O)C1(O)c2ccccc2NC(=O)N1c1ccc(Cl)c(Cl)c1 (stereo not shown) | -1.45 |
| O=C(/C=C/c1cccs1)NC(=S)NNC(=O)Cc1cccs1 | 24.6 |
| CCn1c(=S)[nH]c2sc3c(c2c1=O)CCCC3 | 26.7 |
| CCNC(=O)COc1ccc(C=O)cc1OC | 10.5 |

| Compound | hERG current change (%, negative = inhibition) at 10uM [%] |
| --- | --- |
| Cc1ccc(-c2nc3ccccc3s2)cc1S(=O)(=O)N1CCCC1 | -4.46 |
| CC(OC(=O)c1ccc(Cl)c(S(=O)(=O)N2CCOCC2)c1)C(=O)NC1CCCCC1C (stereo not shown) | -35.9 |
| CCn1cc(CNC(=O)c2cc([N+](=O)[O-])c(C)c([N+](=O)[O-])c2)cn1 | 5.28 |
| CCC(C(=O)OCC(=O)Nc1cc(Cl)ccc1Cl)c1ccccc1 (stereo not shown) | 27.5 |
| Cc1ccc(N2CCN(S(=O)(=O)N3CCCCCC3)CC2)cc1Cl | 4.91 |
| CC1COC2C(O1)N(S(C)(=O)=O)CCN2S(C)(=O)=O (stereo not shown) | 10.4 |
| Cc1ccc(CN2CC(C(=O)Nc3nnc(SCc4c(Cl)cccc4Cl)s3)CC2=O)cc1 (stereo not shown) | 14.1 |
| CCCS(=O)(=O)N1CCC(C(=O)NCCCOC(C)C)CC1 | 11.1 |
| CCOC(=O)C1=C(C)N(CCCCCC(=O)O)C(=O)NC1c1ccc(Cl)cc1 (stereo not shown) | 7.91 |
| CCOC(=O)C1=C(COC(=O)CCOc2ccc(C)cc2)NC(=O)NC1C (stereo not shown) | -6.59 |
| COCCNC(=O)Cc1c(C)c2c(cc(C)c3c(C(C)(C)C)coc32)oc1=O | -5.58 |
| COc1ccc(/C=N/NC(=S)NCCc2ccccc2)cc1 | 17.4 |
| CN(Cc1ccccc1)S(=O)(=O)c1cccc(C(=O)O)c1 | 2.9 |
| Cc1ccc(-n2[nH]c(C)c(/C=N/NC(=O)c3ccc([N+](=O)[O-])cc3)c2=O)c(C)c1 | 9.6 |
| CC(C)n1nnnc1SCC(=O)NCc1ccco1 | 0.635 |
| O=C1CSC(c2ccccc2[N+](=O)[O-])N1CCc1ccccc1 (stereo not shown) | -41 |
| COCCn1c(-c2ccc3ccccc3c2)nc2c1c(=O)[nH]c(=O)n2CC(C)C | -19.3 |
| CN(c1ccc(OCC(=O)N2CCOCC2)cc1)S(=O)(=O)c1ccc(F)cc1 | -9.15 |
| Cc1cccc(N2CCN(C(=O)CCS(=O)(=O)c3ccc4c(c3)oc(=O)n4C)CC2)c1C | -51.2 |
| CC(C)(O)C#Cc1ccc(CN2CCC(n3nccc3NC(=O)C3CC3)CC2)cc1 | -19 |
| Cc1ccc(Cn2c(SCc3cccnc3)nc3c2c(=O)n(C)c(=O)n3C)cc1 | -0.713 |
| Clc1ccc(SCc2cc(N3CCOCC3)nc(-c3ccccn3)n2)cc1 | -43.5 |

| Compound | hERG current change (%, negative = inhibition) at 10uM [%] |
| --- | --- |
| CCCCCCCCC(=O)NC(NC(=S)N1CCOCC1)C(Cl)(Cl)Cl (stereo not shown) | 10.2 |
| CC(C)=CC(=O)N1CCCC(N2CCN(c3ccc(F)cc3)CC2)C1 (stereo not shown) | -0.816 |
| Cn1c(COc2ccc([N+](=O)[O-])cc2)nnc1SCC(=O)NCC1CCCO1 (stereo not shown) | -35.4 |
| O=C(c1cc(F)ccc1F)C1CCCN(C(=O)CCc2cnccn2)C1 (stereo not shown) | 5.06 |
| CCCNC(=O)c1onc(CSc2ccc(F)c(F)c2)c1C(=O)NCCC | -18.3 |
| CCOC(=O)c1cc(NC(=O)C2C3CCC(O3)C2C(=O)O)cc(C(=O)OCC)c1 (stereo not shown) | -5.05 |
| Cc1cc(C)c(NC(=O)CSc2ccc3nnc(CCNC(=O)c4ccccc4)n3n2)c(C)c1 | -15.4 |
| O=C(NNC(=O)c1ccccc1OCc1ccccc1)c1ccccc1F | -4.28 |
| C=CCNC(=O)/C(C#N)=C/c1c(C)nn(-c2ccc(Cl)cc2)c1Cl | 3.71 |
| COc1cc(F)ccc1S(=O)(=O)N1CCN(Cc2ccccc2)CC1 | -1.08 |
| CC(C)(C)OC(=O)N[C@H](C(=O)OC(C)(C)C)c1ccc2c(c1)OCO2 | -4.77 |
| c1ccc2oc(-c3[nH]ncc3CN3CCSCC3)cc2c1 | -5.92 |
| CC1CN(CCCCSc2ccccc2)CC(C)O1.Cl (stereo not shown) | -8.71 |
| Cc1ccc(CN2CC(=O)N3[C@H]4c5cc(C)ccc5OC[C@@H]4[C@H](c4ccccc4)[C@]3(C)C2=O)cc1 | 12.5 |
| CCSc1nc(-c2ccccc2)nc(C(Cl)Cl)n1 | -0.375 |
| CN1CCC(N(C)C(=S)Nc2ccc(F)cc2)CC1 | 21.3 |
| Cc1ccc(NC(=S)NNC(=O)Cn2nc([N+](=O)[O-])cc2C)cc1 | 22.1 |
| Cc1ccc(C(=O)CSc2ccccc2C(=O)O)cc1 | 16.9 |
| CC1=CC(=C2C(=O)NC(=O)NC2=O)C=C(C(F)(F)F)N1Cc1ccccc1 | -3.33 |
| CC(C)n1cc(CN2CCN(C)C(CCO)C2)c2ccccc21 (stereo not shown) | 17.4 |
| COc1ccc(S(=O)(=O)NCC(=O)N(CC(=O)NCC2CCCO2)Cc2ccc(F)cc2)cc1 (stereo not shown) | -2.05 |
| COc1ccc([N+](=O)[O-])cc1NC(=O)CCN1CCOCC1 | -0.574 |

| Compound | hERG current change (%, negative = inhibition) at 10uM [%] |
| --- | --- |
| CC(=O)Nc1cc[n+](C(C)C(=O)c2ccccc2)cc1.[Cl-] (stereo not shown) | 7.29 |
| Cc1cc(Nc2cccc(C(=O)O)c2)n2ncnc2n1 | 19.7 |
| COC(=O)c1ccc(C)c(NC(=O)CN2C(=O)c3ccccc3S2(=O)=O)c1 | 6.46 |
| Cc1cccnc1NS(=O)(=O)c1cccc([N+](=O)[O-])c1 | 6.1 |
| Cc1ccc(C2C3=C(CCCC3=O)N=C3c4ccccc4C(=O)C32)cc1 (stereo not shown) | -10.2 |
| O=c1c(-c2nc3ccccc3s2)cccn1Cc1ccc(Cl)cc1 | 0.362 |
| COc1cc(/C=N/NC(=O)c2ccc(O)cc2)ccc1OCC(=O)Nc1cccc([N+](=O)[O-])c1 | 10.3 |
| CN(C)/N=C/c1ccc(Sc2ccccc2[N+](=O)[O-])o1 | -5.83 |
| CCCCCCn1c(SCC(=O)Nc2cc(C)on2)nc2ccccc2c1=O | 6.53 |
| COc1cc(C(=O)NCC(=O)OCc2cc(=O)oc3c(C)c(C)ccc23)cc(OC)c1OC | -9.1 |
| COc1ccccc1CC(NC(C)=O)C(=O)NC1CCN(C(=O)Nc2ccccc2C)CC1 (stereo not shown) | 2.45 |
| O=C(Cn1cc([N+](=O)[O-])cn1)N1CCCc2ccccc21 | -6.61 |
| CCOC(=O)c1cc(C)nc(SC)c1C#N | 6.49 |
| COC(=O)c1ccc(COc2cc(C)ccc2C)o1 | 15.9 |
| CCOc1ccc(S(=O)(=O)NCCOC)cc1C | 14.7 |
| O=C(NC(=S)Nc1ccccc1O)c1ccc(-c2ccc(Cl)cc2)o1 | 17.3 |
| CCOc1ccc2nc(NC(=O)CN3CCC(n4nnc5cc(F)ccc54)CC3)sc2c1 | -40.1 |
| O=C(Cn1ccccc1=S)c1ccc(Cl)c(Cl)c1 | -4.39 |
| CC(=O)c1ccc(OCC(=O)N(C2CCCCC2)C2CCS(=O)(=O)C2)cc1 (stereo not shown) | -2.18 |
| CC(C)NC(NC(=O)Cc1ccccc1)C(Cl)(Cl)Cl (stereo not shown) | 18.8 |
| Cn1nccc1C(=O)NC1CCCc2c1cnn2-c1ccccc1F (stereo not shown) | 18.9 |
| CC(=O)OCc1c(-c2ccccc2)c2cc([N+](=O)[O-])ccc2n1C | 12.8 |
